Data reported in PubChem BioAssay AID294 (DTP/NCI, 2004).
Not every entry of the source has a single result; some have several. They are shown here; other results are not. There may be further records. Values given together are repeats (runs, samples, wells, individuals or studies).

Tested on: MX-1 breast xenograft, nude mice, tumor weight change
Assay: NCI In Vivo Anticancer Drug Screen. Data for tumor model Human Mammary Carcinoma MX-1 Xenograft (subcutaneous) in NU/NU Swiss (nude) mice
Settings: endpoint: optimum tumor weight change, higher = larger tumour
Description: The antitumor activity of compounds was measured in mice bearing transplantable tumors. Survival or tumor size were measured and the results are expressed as the measurement made in the treated group (T) divided by the measurement made in the vehicle treated control group (C). The tumor model used in this assay is Human Mammary Carcinoma MX-1 Xenograft (subcutaneous) in NU/NU Swiss (nude) mice

CN(C)c1nc(N(C)C)nc(N(C)C)n1
T/C (dose: 120.0 mg/kg/injection, schedule: Q07DX005 (ip), vehicle: Klucel (hydroxypropylcellulose) (HPC)): -69 % of control and 17 % of control

CN(CO)c1nc(N(C)CO)nc(N(C)CO)n1
T/C (dose: 50.0 mg/kg/injection, schedule: Q04DX005 (ip), vehicle: saline): 53 % of control and 79 % of control | T/C (dose: 100.0 mg/kg/injection, schedule: Q04DX005 (ip), vehicle: saline): -52 % of control and 4 % of control

O=S(CCCl)CCCl
T/C (dose: 50.0 mg/kg/injection, schedule: Q04DX003 (ip), vehicle: Klucel (hydroxypropylcellulose) (HPC)): 37 % of control and 72 % of control
